{
  "source": "the supplement of paper PMC3334620",
  "note": "In all, about 33,000 sequences were measured (“E-score (-0.5 to 0.5)”: median about -0.053, highest 2% from about 0.37 on). Some of the results follow.",
  "data": [
    {"target": "Hap1 (UniProt P0CE41)", "sequence (P0CE41 whole entry, the tested form may be a part)": "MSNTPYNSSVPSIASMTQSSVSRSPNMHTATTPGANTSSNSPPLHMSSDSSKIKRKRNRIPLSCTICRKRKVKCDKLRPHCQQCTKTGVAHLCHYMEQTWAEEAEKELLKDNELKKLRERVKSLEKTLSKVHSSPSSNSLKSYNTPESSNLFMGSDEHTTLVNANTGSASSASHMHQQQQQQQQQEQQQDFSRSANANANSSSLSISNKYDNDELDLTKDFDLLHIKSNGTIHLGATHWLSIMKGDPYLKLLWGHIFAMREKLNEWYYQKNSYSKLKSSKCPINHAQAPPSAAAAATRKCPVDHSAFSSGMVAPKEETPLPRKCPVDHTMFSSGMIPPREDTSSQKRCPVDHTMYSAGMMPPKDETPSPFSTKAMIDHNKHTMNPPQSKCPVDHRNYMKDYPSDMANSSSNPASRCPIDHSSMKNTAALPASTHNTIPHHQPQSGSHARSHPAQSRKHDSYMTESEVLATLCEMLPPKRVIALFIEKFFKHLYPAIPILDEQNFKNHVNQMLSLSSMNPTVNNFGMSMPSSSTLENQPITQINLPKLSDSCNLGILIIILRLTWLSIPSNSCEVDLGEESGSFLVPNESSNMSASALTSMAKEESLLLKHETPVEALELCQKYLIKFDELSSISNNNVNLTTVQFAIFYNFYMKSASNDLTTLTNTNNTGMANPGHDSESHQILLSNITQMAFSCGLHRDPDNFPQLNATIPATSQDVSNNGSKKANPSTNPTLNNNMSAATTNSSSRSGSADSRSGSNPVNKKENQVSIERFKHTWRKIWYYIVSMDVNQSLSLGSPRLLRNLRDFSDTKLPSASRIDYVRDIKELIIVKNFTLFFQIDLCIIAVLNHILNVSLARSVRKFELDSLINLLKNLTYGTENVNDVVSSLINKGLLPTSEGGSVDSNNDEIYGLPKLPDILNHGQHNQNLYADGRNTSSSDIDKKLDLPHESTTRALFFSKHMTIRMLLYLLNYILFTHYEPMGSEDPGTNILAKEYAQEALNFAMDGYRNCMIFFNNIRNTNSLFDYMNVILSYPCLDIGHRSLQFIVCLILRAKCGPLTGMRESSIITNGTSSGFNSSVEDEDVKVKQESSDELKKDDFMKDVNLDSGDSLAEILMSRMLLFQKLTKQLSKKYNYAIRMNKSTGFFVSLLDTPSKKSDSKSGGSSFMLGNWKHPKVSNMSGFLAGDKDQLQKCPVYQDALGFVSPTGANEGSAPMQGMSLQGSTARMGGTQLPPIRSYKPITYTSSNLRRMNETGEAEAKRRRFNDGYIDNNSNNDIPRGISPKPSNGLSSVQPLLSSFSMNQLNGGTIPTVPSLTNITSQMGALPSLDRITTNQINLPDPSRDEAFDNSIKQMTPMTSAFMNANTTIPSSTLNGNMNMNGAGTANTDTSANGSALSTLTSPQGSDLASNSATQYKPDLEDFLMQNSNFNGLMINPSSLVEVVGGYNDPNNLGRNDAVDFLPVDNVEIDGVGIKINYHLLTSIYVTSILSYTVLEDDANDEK", "experiment": "PBM E-score (8-mer binding enrichment) (E-score (-0.5 to 0.5)); higher = stronger / more preferred TF binding; most listed sequences are background and not binding sites", "details": "protein concentration: 200 nM; construct: GST-DNA-binding domain", "method_in_brief": "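For each ungapped eight-base word taken together with its reverse complement, the Universal PBM Analysis Suite assigned an E-score. Binding data came from GST-tagged yeast transcription factors, applied at about 100-200 nM, on universal all-10-mer Agilent arrays made double-stranded by primer extension. Fluorescent anti-GST marked bound protein, and scans were normalised with masliner.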", "values": [
      {"sequence": "AGACATGA", "PBM E-score": -0.269},
      {"sequence": "GGAACTTA", "PBM E-score": 0.222},
      {"sequence": "AAGAGCGT", "PBM E-score": -0.0104},
      {"sequence": "ATTCACAC", "PBM E-score": -0.0838},
      {"sequence": "GCTACGCA", "PBM E-score": 0.0599},
      {"sequence": "AAGATAGG", "PBM E-score": -0.243},
      {"sequence": "AGCATATG", "PBM E-score": -0.278},
      {"sequence": "ATTGGGGC", "PBM E-score": -0.121},
      {"sequence": "AAGGCCCG", "PBM E-score": 0.196},
      {"sequence": "ACAAATCG", "PBM E-score": 0.0601},
      {"sequence": "ATCAACAG", "PBM E-score": -0.00366},
      {"sequence": "AGATAGAA", "PBM E-score": -0.151},
      {"sequence": "TAAACCCA", "PBM E-score": -0.0432},
      {"sequence": "CTTATCGA", "PBM E-score": 0.0359},
      {"sequence": "GGTATATA", "PBM E-score": -0.0426},
      {"sequence": "AGCTCCAT", "PBM E-score": -0.146},
      {"sequence": "ACACTATA", "PBM E-score": -0.139},
      {"sequence": "GTCTATAA", "PBM E-score": -0.11},
      {"sequence": "CATGAGGC", "PBM E-score": 0.0271},
      {"sequence": "CTCCGTGC", "PBM E-score": 0.276},
      {"sequence": "ACAGGGAC", "PBM E-score": -0.0505},
      {"sequence": "AACAACAT", "PBM E-score": -0.16},
      {"sequence": "GCGCTTAC", "PBM E-score": 0.119},
      {"sequence": "CACCCGCA", "PBM E-score": 0.175},
      {"sequence": "CACAGAGC", "PBM E-score": -0.197},
      {"sequence": "AGATTTTG", "PBM E-score": -0.178},
      {"sequence": "GACATAAC", "PBM E-score": 0.295},
      {"sequence": "AGTGTAGG", "PBM E-score": -0.195},
      {"sequence": "ACTCAAGT", "PBM E-score": -0.186},
      {"sequence": "GGGCTACA", "PBM E-score": -0.0843},
      {"sequence": "TGCGGACA", "PBM E-score": 0.22},
      {"sequence": "AACCTATG", "PBM E-score": -0.273},
      {"sequence": "CGGTAAGC", "PBM E-score": 0.168},
      {"sequence": "AGCTTAAA", "PBM E-score": -0.0455},
      {"sequence": "CCGCAAGC", "PBM E-score": 0.0614},
      {"sequence": "GTCGCGAC", "PBM E-score": 0.244},
      {"sequence": "CTTAGCAA", "PBM E-score": -0.13},
      {"sequence": "CACGTGCA", "PBM E-score": -0.232},
      {"sequence": "ACTGATTC", "PBM E-score": -0.0611},
      {"sequence": "GAAATTCA", "PBM E-score": -0.0161},
      {"sequence": "AGAACATC", "PBM E-score": -0.132},
      {"sequence": "AATGTGCG", "PBM E-score": 0.0725},
      {"sequence": "ACAAAGGC", "PBM E-score": -0.118},
      {"sequence": "AACGTGCC", "PBM E-score": -0.0752},
      {"sequence": "AGCTTCTG", "PBM E-score": 0.0241},
      {"sequence": "GGCACTGA", "PBM E-score": -0.0786},
      {"sequence": "CTAACTTC", "PBM E-score": -0.0933},
      {"sequence": "GGACCTCA", "PBM E-score": -0.0128},
      {"sequence": "GCTTCAAA", "PBM E-score": -0.0797},
      {"sequence": "ATGAGGGC", "PBM E-score": 0.0612},
      {"sequence": "AAGGTTAG", "PBM E-score": -0.172},
      {"sequence": "CGATCAGC", "PBM E-score": 0.0843},
      {"sequence": "GGCCAGTA", "PBM E-score": 0.0694},
      {"sequence": "AGATCCCG", "PBM E-score": 0.283},
      {"sequence": "CAGGGCCC", "PBM E-score": -0.0861},
      {"sequence": "CGTATTTA", "PBM E-score": 0.129},
      {"sequence": "AGGCTACA", "PBM E-score": -0.293},
      {"sequence": "ACTCTCAA", "PBM E-score": -0.38},
      {"sequence": "CCTTACCA", "PBM E-score": -0.312},
      {"sequence": "CCAGCACC", "PBM E-score": -0.163},
      {"sequence": "ACTTAAAG", "PBM E-score": -0.0509},
      {"sequence": "AATGTTAT", "PBM E-score": -0.124},
      {"sequence": "ACCACCCC", "PBM E-score": 0.0325},
      {"sequence": "CACCTCTA", "PBM E-score": -0.141},
      {"sequence": "CTGTTAAC", "PBM E-score": 0.176},
      {"sequence": "CAACGCCC", "PBM E-score": 0.0355},
      {"sequence": "TAAACAAA", "PBM E-score": -0.045},
      {"sequence": "CGGCTTGA", "PBM E-score": 0.13},
      {"sequence": "CGCTGCTC", "PBM E-score": -0.134},
      {"sequence": "CCTTAATC", "PBM E-score": 0.0701},
      {"sequence": "AAATTCGC", "PBM E-score": 0.0775},
      {"sequence": "CTACAATC", "PBM E-score": -0.0799},
      {"sequence": "CCGACAGG", "PBM E-score": 0.256},
      {"sequence": "CAATACAG", "PBM E-score": -0.0781},
      {"sequence": "ATCGCGTG", "PBM E-score": 0.0249},
      {"sequence": "CTTTGGAA", "PBM E-score": -0.128},
      {"sequence": "CGGATATA", "PBM E-score": 0.482},
      {"sequence": "ACGACAGT", "PBM E-score": -0.206},
      {"sequence": "AATACTCA", "PBM E-score": -0.0687},
      {"sequence": "TACGCGCA", "PBM E-score": 0.0988},
      {"sequence": "CGAACATC", "PBM E-score": 0.174},
      {"sequence": "AGTCTGGC", "PBM E-score": -0.291},
      {"sequence": "GTCCCAGA", "PBM E-score": -0.0784},
      {"sequence": "CCCAAAAG", "PBM E-score": -0.0474},
      {"sequence": "AAGGCTGG", "PBM E-score": -0.37},
      {"sequence": "CTCACGAC", "PBM E-score": -0.226}
    ]}
  ]
}
